Reference: US20240139156A1, “COMBINATION TREATING PROSTATE CANCER, PHARMACEUTICAL COMPOSITION AND TREATMENT METHOD” (KANGPU BIOPHARMACEUTICALS, LTD., priority 2017, published 2024)

System: Vcap cells (androgen receptor (+) prostate cancer cells)
Assay: CTG cell proliferation assay (CellTiter-Glo), compounds alone or in combination
Details: for viability at 1 µM / viability at 10 µM: Homo sapiens, VCaP, 120 h, read-out: Survival rate of Vcap cells; for effect of tested compound in combination with the other therapeutic agents (prednisone, Galeterone, Abiraterone acetate, ODM-201): Vcap cell survival, without B001, summary in words
[1] = 1 μM tested compound in combination with 1 μM Abiraterone acetate
[2] = 1 μM tested compound in combination with 1 μM B001
[3] = 1 μM tested compound in combination with 1 μM B001 and 1 μM Abiraterone acetate
[4] = 1 μM tested compound in combination with 1 μM B001 and 1 μM Galeterone
[5] = 1 μM tested compound in combination with 1 μM B001 and 1 μM ODM-201
[6] = 1 μM tested compound in combination with 1 μM B001 and 1 μM prednisone
[7] = 1 μM tested compound in combination with 1 μM B001 and 1 μM prednisone and 1 μM Abiraterone acetate
[8] = 1 μM tested compound in combination with 1 μM B001 and 1 μM prednisone and 1 μM Galeterone
[9] = 1 μM tested compound in combination with 1 μM B001 and 1 μM prednisone and 1 μM ODM-201
[10] = 1 μM tested compound in combination with 1 μM Galeterone
[11] = 1 μM tested compound in combination with 1 μM ODM-201
[12] = 1 μM tested compound in combination with 1 μM prednisone
[13] = 10 μM tested compound in combination with 1 μM Abiraterone acetate
[14] = 10 μM tested compound in combination with 1 μM B001
[15] = 10 μM tested compound in combination with 1 μM B001 and 1 μM Abiraterone acetate
[16] = 10 μM tested compound in combination with 1 μM B001 and 1 μM Galeterone
[17] = 10 μM tested compound in combination with 1 μM B001 and 1 μM ODM-201
[18] = 10 μM tested compound in combination with 1 μM B001 and 1 μM prednisone
[19] = 10 μM tested compound in combination with 1 μM B001 and 1 μM prednisone and 1 μM Abiraterone acetate
[20] = 10 μM tested compound in combination with 1 μM B001 and 1 μM prednisone and 1 μM Galeterone
[21] = 10 μM tested compound in combination with 1 μM B001 and 1 μM prednisone and 1 μM ODM-201
[22] = 10 μM tested compound in combination with 1 μM Galeterone
[23] = 10 μM tested compound in combination with 1 μM ODM-201
[24] = 10 μM tested compound in combination with 1 μM prednisone

| SMILES | Survival rate of Vcap cells [1] | Survival rate of Vcap cells [2] | Survival rate of Vcap cells [3] | Survival rate of Vcap cells [4] | Survival rate of Vcap cells [5] | Survival rate of Vcap cells [6] | Survival rate of Vcap cells [7] | Survival rate of Vcap cells [8] | Survival rate of Vcap cells [9] | Survival rate of Vcap cells [10] | Survival rate of Vcap cells [11] | Survival rate of Vcap cells [12] | Survival rate of Vcap cells [13] | Survival rate of Vcap cells [14] | Survival rate of Vcap cells [15] | Survival rate of Vcap cells [16] | Survival rate of Vcap cells [17] | Survival rate of Vcap cells [18] | viability at 1 µM | viability at 10 µM | other results |
| --- | --- | --- | --- | --- | --- | --- | --- | --- | --- | --- | --- | --- | --- | --- | --- | --- | --- | --- | --- | --- | --- |
| CC1(C)C(=O)N(c2ccc(C#N)c(C(F)(F)F)c2)C(=S)N1c1ccc(OCC(O)CO)c(F)c1 (stereo not shown) [AR3-2] | 70.8% | 51.248% | 46.9% | 47.9% | 50.3% | 56.4% | 57.0% | 56.2% | 56.3% | 73.4% | 71.7% | 77.1% | 53.9% | 42.044% | 38.4% | 40.5% | 44.6% | 39.3% | 76% | 62.8% | Survival rate of Vcap cells [19]: 43.4%; Survival rate of Vcap cells [20]: 45.7%; Survival rate of Vcap cells [21]: 49.8%; Survival rate of Vcap cells [22]: 58.6%; Survival rate of Vcap cells [23]: 62.5%; Survival rate of Vcap cells [24]: 57.6%; effect of tested compound in combination with the other therapeutic agents (prednisone, Galeterone, Abiraterone acetate, ODM-201): did not improve significantly |
| CC1(C)C(=O)N(c2ccc(C#N)c(C(F)(F)F)c2)C(=S)N1c1ccc(OC[C@@H](O)CO)cc1 [AR3-3] | 75.0% | 59.220% | 58.5% | 54.6% | 56.7% | 68.4% | 57.0% | 59.0% | 48.4% | 78.0% | 74.0% | 82.3% | 57.5% | 45.721% | 43.6% | 48.1% | 50.3% | 49.1% | 83.5% | 68.7% | Survival rate of Vcap cells [19]: 42.3%; Survival rate of Vcap cells [20]: 45.7%; Survival rate of Vcap cells [21]: 45.6%; Survival rate of Vcap cells [22]: 62.2%; Survival rate of Vcap cells [23]: 64.5%; Survival rate of Vcap cells [24]: 60.3%; effect of tested compound in combination with the other therapeutic agents (prednisone, Galeterone, Abiraterone acetate, ODM-201): did not improve significantly |
| CC1(C)C(=O)N(c2ccc(C#N)c(C(F)(F)F)c2)C(=S)N1c1ccc(OCCO)cc1 [AR3-4] | 73.6% | 52.699% | 48.2% | 49.4% | 50.4% | 54.0% | 46.8% | 52.0% | 46.4% | 76.1% | 78.3% | 82.2% | 64.5% | 47.983% | 41.9% | 43.7% | 46.9% | 44.0% | 77% | 66.1% | Survival rate of Vcap cells [19]: 40.8%; Survival rate of Vcap cells [20]: 46.6%; Survival rate of Vcap cells [21]: 45.5%; Survival rate of Vcap cells [22]: 68.1%; Survival rate of Vcap cells [23]: 68.4%; Survival rate of Vcap cells [24]: 69.1%; effect of tested compound in combination with the other therapeutic agents (prednisone, Galeterone, Abiraterone acetate, ODM-201): did not improve significantly |
| CC(=O)O[C@H]1CC[C@@]2(C)C(=CC[C@@H]3[C@@H]2CC[C@]2(C)C(c4cccnc4)=CC[C@@H]32)C1 [Abiraterone acetate, reference compound] | – | – | – | – | – | – | – | – | – | – | – | – | – | – | – | – | – | – | 86.6% | 54.1% | – |
| Nc1cccc2c1CN(C1CCC(=O)NC1=O)C2=O (stereo not shown) [Compound B001] | – | – | – | – | – | – | – | – | – | – | – | – | – | – | – | – | – | – | 75.8% | 74.1% | – |
| C[C@]12CC[C@H](O)CC1=CC[C@@H]1[C@@H]2CC[C@]2(C)C(n3cnc4ccccc43)=CC[C@@H]12 [Galeterone, reference compound] | – | – | – | – | – | – | – | – | – | – | – | – | – | – | – | – | – | – | – | – | Survival rate of Vcap cells (tested compound alone, 1 μM, 5 days): 79.7%; Survival rate of Vcap cells (tested compound alone, 10 μM, 5 days): 33.4% |
| CC(O)c1cc(C(=O)N[C@@H](C)Cn2ccc(-c3ccc(C#N)c(Cl)c3)n2)[nH]n1 (stereo partly shown) [ODM-201, reference compound] | – | – | – | – | – | – | – | – | – | – | – | – | – | – | – | – | – | – | 67.9% | 67.6% | – |
| C[C@]12C=CC(=O)C=C1CC[C@@H]1[C@@H]2C(=O)C[C@@]2(C)[C@H]1CC[C@]2(O)C(=O)CO [Prednisone, reference compound] | – | – | – | – | – | – | – | – | – | – | – | – | – | – | – | – | – | – | 91.8% | 81.4% | – |
